# The whole screen tested about 350,000 compounds, of which about 31,000 (8.9%) were called active. Inconclusive means that the source gave no clear call. Such entries were picked first, then a sample of the others. The call rests on the fitted dose curve; in most records, active means well fitted inhibition curve with a large enough effect; inconclusive means small, poorly fitted or top-dose-only effect; inactive means no such curve, though single readings can be large or run the other way. Potencies of inconclusive entries are doubtful fits and often do not repeat.
# Biological target: Histone-lysine N-methyltransferase EHMT2 (Homo sapiens) (UniProt Q96KQ7)
# Chain of UniProt Q96KQ7 (Q96KQ7 whole entry, looked up): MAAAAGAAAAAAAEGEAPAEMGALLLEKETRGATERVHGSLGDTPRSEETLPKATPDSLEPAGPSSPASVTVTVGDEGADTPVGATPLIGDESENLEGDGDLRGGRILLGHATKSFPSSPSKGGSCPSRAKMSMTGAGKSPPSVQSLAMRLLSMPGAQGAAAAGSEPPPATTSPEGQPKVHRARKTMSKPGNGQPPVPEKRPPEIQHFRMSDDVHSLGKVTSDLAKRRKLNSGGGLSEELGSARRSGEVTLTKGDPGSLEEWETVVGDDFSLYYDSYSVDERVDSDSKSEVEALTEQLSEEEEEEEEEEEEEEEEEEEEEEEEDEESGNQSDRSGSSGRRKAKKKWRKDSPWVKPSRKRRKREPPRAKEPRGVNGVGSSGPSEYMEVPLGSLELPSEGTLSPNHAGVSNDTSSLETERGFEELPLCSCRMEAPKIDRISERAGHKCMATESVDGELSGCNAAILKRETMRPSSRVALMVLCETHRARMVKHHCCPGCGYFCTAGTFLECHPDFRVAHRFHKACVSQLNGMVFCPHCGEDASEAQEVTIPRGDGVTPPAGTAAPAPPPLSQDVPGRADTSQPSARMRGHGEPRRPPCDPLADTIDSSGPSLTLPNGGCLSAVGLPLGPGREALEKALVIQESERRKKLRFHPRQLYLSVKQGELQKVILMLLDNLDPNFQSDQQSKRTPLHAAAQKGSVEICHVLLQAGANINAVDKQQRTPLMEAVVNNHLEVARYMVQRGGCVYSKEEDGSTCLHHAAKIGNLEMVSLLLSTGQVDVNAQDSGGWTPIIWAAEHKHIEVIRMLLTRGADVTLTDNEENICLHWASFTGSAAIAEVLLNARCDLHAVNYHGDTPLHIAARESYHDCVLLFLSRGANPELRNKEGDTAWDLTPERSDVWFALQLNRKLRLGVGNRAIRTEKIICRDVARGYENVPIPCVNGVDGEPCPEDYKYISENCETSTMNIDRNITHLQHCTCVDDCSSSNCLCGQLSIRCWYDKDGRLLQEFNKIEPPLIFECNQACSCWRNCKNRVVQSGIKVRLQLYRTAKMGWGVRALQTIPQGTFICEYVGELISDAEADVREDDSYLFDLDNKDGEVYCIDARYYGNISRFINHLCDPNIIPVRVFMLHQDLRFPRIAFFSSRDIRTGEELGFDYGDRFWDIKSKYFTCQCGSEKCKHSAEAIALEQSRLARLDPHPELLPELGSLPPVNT
# Experiment: qHTS Assay for Inhibitors of Histone Lysine Methyltransferase G9a; further: nearly all actives have a fitted effect of over 75% in size
# Conditions: G9a H3K9 monomethylation, AlphaScreen, 2 h; activity, negative = inhibition: at 59 µM (top of the series) unless noted
# How it was run: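 AlphaScreen read-out: biotin-H3K9 peptide (500 nM) methylation by 20 nM enzyme with 20 uM SAM, 2 h at room temperature after 15 min compound preincubation; anti-monomethyl H3K9 antibody plus donor/acceptor beads, 10 min dark.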
# On the % scale 0 is the no-effect control and ±100 the full control effect; potency means the concentration at half of the fitted maximal effect; tags describe the fitted curve by direction and shape.
Compound,Potency,"activity, negative = inhibition"
CCN(C(=O)Cc1c(C(=O)O)c(C)cn1C)c1cccc(Cl)c1,inactive,
O=C(/C=C/Nc1cccc(F)c1)c1ccco1,"inconclusive: 89.1 µM [inhibitor, single point]",
CN(CC(=O)Nc1ccc(N2CCOCC2)cc1)C(=O)CC(c1ccccc1)c1ccccc1,"inconclusive: 28.2 µM [inhibitor, single point]",
O=C(CNc1ccc(Br)cc1)c1ccc(O)cc1,active: 44.7 µM,
CC(C)N(C(=O)Cn1cc(S(=O)(=O)CC(=O)NCc2ccccc2)c2ccccc21)C(C)C,"inconclusive: 2.82 µM [inhibitor, partial curve, poor fit]",
CC(=O)Nc1cc2c(nc1C)nc(C)n2Cc1ccc(Br)cc1,"inconclusive: 7.08 µM [inhibitor, partial curve, poor fit]",
Cn1c(NC(=O)c2cccnc2)nc2ccccc21,,inconclusive: -92.9% [inhibitor]
Cc1ccc(C(=O)/C=C/c2cc(Br)cc(Br)c2O)o1,active: 35.5 µM,
CC(=O)Nc1ccc(Nc2c(CCC(C)C)c(C)c(C#N)c3nc4ccccc4n23)cc1,inactive,
CC[C@H](C)[C@H](NC(=O)c1ccc(Cl)cc1)C(=O)OCC(=O)c1ccc2c(c1)NC(=O)CO2,"inconclusive: 89.1 µM [inhibitor, single point]",
CCN(CC)CCCN1C(=O)C(O)=C(C(=O)c2cc3cccc(OC)c3o2)C1c1ccncc1 (centres undefined),active: 50.1 µM,
COc1cc(CC(=O)NCC(C)(C)N2CCOCC2)cc(OC)c1OC,active: 50.1 µM,
COc1ccc(/C=C2\CCCC(C(=O)C(F)(F)F)=C2O)cc1,active: 8.91 µM,
COc1cc(NC(=O)C(NS(=O)(=O)c2ccc3c(c2)CCCC(=O)N3)C(C)C)cc(OC)c1 (centres undefined),inactive,
CCOC(=O)c1ccc(Nc2nnc(C(C)(C)C)c(=O)[nH]2)cc1,"inconclusive: 1 µM [inhibitor, full curve, poor fit]",
CN=C(Nc1cc(C)nn1-c1ccccc1)c1ccccc1,"inconclusive: 89.1 µM [inhibitor, partial curve, poor fit]",
Cc1ccc(NC(=O)c2sc3nc(-c4ccncc4)ccc3c2N)cc1,"inconclusive: 0.0158 µM [inhibitor, full curve, poor fit]",
CN(C)CCNS(=O)(=O)c1ccc(N2CCN(c3ccc(F)cc3)CC2)c([N+](=O)[O-])c1,"inconclusive: 39.8 µM [inhibitor, single point]",
CCc1sc(NS(C)(=O)=O)nc1-c1ccccc1,"inconclusive: 89.1 µM [inhibitor, single point]",
O=C(c1cnn(-c2ccccc2)c1)c1cc(F)ccc1O,inactive,
Cc1noc(C)c1S(=O)(=O)Nc1ccccc1Cl,"inconclusive: 89.1 µM [inhibitor, single point]",
Cc1cccc(NC(=O)CN2C(=O)/C(=C3\SC(=S)N(CC4CCCO4)C3=O)c3ccccc32)c1 (centres undefined),inactive,
CCC(=O)Nc1cccc(C(=O)c2ccccc2)c1,"inconclusive: 7.94 µM [inhibitor, partial curve, poor fit]",
NC1=NC(S)C2N=CN=C2N1 (centres undefined),active: 25.1 µM,
CC1SC(c2cccc(Cl)c2)NC1=O (centres undefined),,inconclusive: -58.1% [inhibitor]

Compound,Potency,"activity, negative = inhibition"
O=c1c2cc(F)ccc2sn1-c1ccccc1,,inactive: 0.0363% [at 0.501 µM]
CSCCC(NS(=O)(=O)c1ccc(Cl)cc1)C(=O)OCC(=O)c1c(C)[nH]c2ccccc12 (centres undefined),"inconclusive: 4.47 µM [inhibitor, partial curve, poor fit]",
COc1ccc(CNC(=O)/C=C/c2cc([N+](=O)[O-])ccc2OC(F)F)cc1,,inactive: 6.66% [at 12.7 µM]
COc1ccc(-c2cc(C(F)(F)F)n3nc(C(=O)Nc4sc5c(c4C(=O)OC(C)C)CCC(C)C5)cc3n2)cc1 (centres undefined),inactive,
CCCN(CCC)C(=O)C1CCCN(S(=O)(=O)c2cc(Br)cc3c2N(C(=O)CC)CC3)C1 (centres undefined),inactive,
COc1ccc(-c2ccc(SCC(=O)NCc3ccco3)nn2)cc1OC,inactive,
Cc1cccc(CS(=O)(=O)Cc2ccc(C(=O)NCCCN3CCCC3)o2)c1,"inconclusive: 89.1 µM [inhibitor, single point]",
N#Cc1cc2c(nc1SCC(N)=O)CCCCC2,active: 79.4 µM,
CC(C)CCOc1ccc(/C=N/N2C(=O)CSC2=S)cc1,inactive,
O=C(Oc1ccc(NC2=NS(=O)(=O)c3ccccc32)cc1)c1cccnc1,inactive,
COc1ccc(N2C(=O)CCSC23C(=O)N(Cc2ccc(F)cc2)c2ccccc23)cc1 (centres undefined),"inconclusive: 28.2 µM [inhibitor, partial curve, poor fit]",
Fc1cccc2sc(Nc3nc4cc5c(cc4s3)OCO5)nc12,inactive,
COc1ccc(CCCc2n[nH]c(=S)n2C)cc1C,active: 11.2 µM,
COc1ccc2c(COC(=O)CNS(=O)(=O)c3ccc(C)c(C)c3)cc(=O)oc2c1,"inconclusive: 35.5 µM [inhibitor, single point]",
CCN1CCN(C(=O)c2ccc3c(c2)c(C)c(C)n3Cc2ccccc2)CC1,active: 35.5 µM,
NS(=O)(=O)c1ccc(NC2=CC(c3ccc([N+](=O)[O-])cc3)N(c3ccc(S(N)(=O)=O)cc3)C2=O)cc1 (centres undefined),active: 22.4 µM,
Cn1c(/C=N/Nc2nc3ccccc3[nH]2)nc2ccccc21,inactive,
COc1ccc(C2=NN(CCC(=O)NCc3cccs3)C(=O)CC2)cc1,inactive,
Cc1ccc(-c2nc3ccccn3c2Nc2ccccc2)o1,active: 50.1 µM,
Cc1ccc2oc(=O)n(CCCOc3ccccc3)c2c1,"inconclusive: 100 µM [inhibitor, single point]",
COc1ccc(/C=C2\CCC/C(=C\C=N\N(C)C)C2=O)cc1,"inconclusive: 50.1 µM [inhibitor, partial curve, poor fit]",
CSc1nc2ccc(NS(=O)(=O)c3c(Cl)cccc3Cl)cc2s1,inactive,
COc1ccc(C([O-])=Nc2ccc[n+](-c3nc4ccccc4nc3NS(=O)(=O)c3ccccc3)c2)cc1,"inconclusive: 31.6 µM [inhibitor, partial curve, poor fit]",
Cc1cccc(N(C(=O)CCC(=O)Nc2nccs2)C(C(=O)NC(C)(C)C)c2ccc(O)cc2)c1 (centres undefined),"inconclusive: 89.1 µM [inhibitor, single point]",
c1ccc2c(c1)c1c3n2CCNC3CCC1 (centres undefined),,inconclusive: -52.4% [inhibitor]

Compound,Potency,"activity, negative = inhibition"
O=C(c1ccc2c(c1)N(Cc1ccc(Cl)cc1)C(=O)c1ccccc1S2(=O)=O)N1CCN(Cc2ccccc2)CC1,"inconclusive: 25.1 µM [inhibitor, partial curve, poor fit]",
CCOC(=O)c1[nH]c2c(c1-c1ccc(OC)cc1)C(=O)CC(c1ccc(OC)c(OC)c1)C2 (centres undefined),active: 50.1 µM,
Cc1ccc2c(CNCc3ccco3)cc(=O)oc2c1,"inconclusive: 28.2 µM [inhibitor, single point]",
CCc1ccc(-n2nc(CO)c(C(=O)NCc3cccnc3)n2)cc1,inactive,
Clc1cccc(CSc2nnc(-c3ccccn3)n2Cc2ccco2)c1,"inconclusive: 50.1 µM [inhibitor, partial curve, poor fit]",
COc1cc2ncc3c(-c4ccccc4)nn(CC(=O)NC4CCCCC4)c3c2cc1OC,inactive,
CCN(CC)CCNC(=O)C(=O)Nc1cc2c3c(c1)CC(=O)N3CCC2,"inconclusive: 89.1 µM [inhibitor, single point]",
O=C(c1ccco1)N1CCN(Cc2ccc(Br)cc2)CC1,,inactive: 15% [at 2.33 µM]
COC(=O)C1=C(C)NC(=S)N(C(C)=O)C1c1ccccc1 (centres undefined),"inconclusive: 17.8 µM [inhibitor, single point]",
N#Cc1cn(CCOc2ccc(F)cc2)c2ccccc12,inactive,
Cc1nc(OCC(C)C)c2sc3nc4c(cc3c2n1)COC(C)(C)C4,"inconclusive: 25.1 µM [inhibitor, single point]",
O=c1oc2ccc(Cl)cc2nc1/C=C(\O)c1cccs1,active: 3.16 µM,
Cc1sc2nc(CSc3nc4ccccc4c(=O)n3CCCN3CCOCC3)[nH]c(=O)c2c1C,"inconclusive: 2.51 µM [inhibitor, partial curve, poor fit]",
Fc1cccc(-c2nnn3c2nc(NCc2ccc4c(c2)OCO4)c2ccccc23)c1,inactive,
COc1ncc2nc(CCc3ccccc3)c(=O)n(C)c2n1,,inactive: 0.773% [at 12.7 µM]
COc1ccc2[nH]c(C(=O)NCc3ccc4c(c3)OCO4)cc2c1,"inconclusive: 50.1 µM [inhibitor, partial curve, poor fit]",
Cc1ccc2nc3c(cc(C(=O)NCCN4CCOCC4)c(=N)n3CCCN3CCOCC3)c(=O)n2c1,"inconclusive: 89.1 µM [inhibitor, single point]",
c1ccc(-c2nnc(N3CCN(c4ccccc4)CC3)nc2-c2ccccc2)cc1,active: 12.6 µM,
Cc1ccc2nc(SCC(=O)Nc3ccc(F)cc3)nc(=O)n2c1,"inconclusive: 56.2 µM [inhibitor, partial curve]",
CCOCCCn1c(=N)c(C(=O)NC(C)c2ccccc2)cc2c(=O)n3cccc(C)c3nc21 (centres undefined),inactive,
CN(C(=O)c1ccc2c(c1)N(Cc1ccc(F)cc1)C(=O)c1ccccc1S2(=O)=O)C1CCCCC1,inactive,
COc1ccc(C(=O)NNc2ncnc3c2cnn3-c2ccc(C)cc2C)cc1,inactive,
COc1ccc(NC(=O)Nc2sc(NS(=O)(=O)c3ccccc3)nc2C)cc1,active: 50.1 µM,
O=S(=O)(NCCSc1ccc(Cl)cc1)c1ccc2c(c1)OCCO2,inactive,
